Several values for one entry are separate records, joined by “and”; a condition that tells them apart may be missing. Identical values can stand only once. Values belong to the binder of their own block, whether it stands above or below them.
How the values were obtained:
Experiment in all cases: cell-based or functional assay
[1] = biological target: intermediate affinity hIL-2 receptor complex (IL-2Rβγ) (human) (UniProt P14784)
[2] = biological target: high-affinity hIL-2 receptor (IL-2Rαβγ) (human) (UniProt P01589)
[3] = biological target: high-affinity hIL-2 receptor (IL-2Rαβγ) on NK-92 cells (human) (UniProt P01589)
[4] = biological target: intermediate affinity hIL-2 receptor complex (IL-2Rβγ) on TF1+IL-2Rβ cells (human) (UniProt P14784)
[5] = biological target: intermediate affinity hIL-2 receptor (hIL-2Rβγ) on TF1+IL-2Rβ cells (human) (UniProt P14784)

Agonistic Activity (TF1 + IL-2Rβ), pSTAT5 titration [1]: 70% | Fold change from rhIL-2 (TF1 + IL-2Rβ), pSTAT5 titration [1]: 117 fold | Agonistic Activity (NK-92), pSTAT5 titration [2]: 70% | Fold change from rhIL-2 (NK-92), pSTAT5 titration [2]: 798 fold | Agonistic Activity (NK-92) [3]: 60% | Fold change from hIL-2 (NK-92) [3]: 14 fold | Fold change from rhIL-2 (NK-92) [3]: 583 fold | Fold change from hIL-2 (TF1 + IL-2Rβ) [4]: 6 fold | Agonistic Activity (TF1 + IL-2Rβ) [5]: 80% | Fold change from rhIL-2 (TF1 + IL-2Rβ) [5]: 135 fold
B1: 1H3-hIgG1-L6-hIL-2 (D20A/E95A/L72H) (protein)
heavy: EVQLVESGGGLVQPGRSLKLSCAVSGFTFSDYAMAWVRQAPKKGLEWVATISYDGSRTYYRDSVKGRFTISRDNAKITLYLQMDSLRSEDTATYYCARHGSGYFDYWGQGVMVTVSS[not shown - human IgG1 constant region]SGGGGSAPTSSSTKKTQLQLEHLLLALQMILNGINNYKNPKLTRMLTFKFYMPKKATELKHLQCLEEELKPLEEVLNHAQSKNFHLRPRDLISNINVIVLALKGSETTFMCEYADETATIVEFLNRWITFCQSIISTLT
light: DTVLTQSPALAVSPGERVTISCRASESVRTGVHWYQQKPGQQPKLLIYGASNLESGVPARFSGSGSGTDFTLTIDPVEADDTATYFCQQSWNDPFTFGSGTKLEIKRTVAAPSVFIFPPSDEQLKSGTASVVCLLNNFYPREAKVQWKVDNALQSGNSQESVTEQDSKDSTYSLSSTLTLSKADYEKHKVYACEVTHQGLSSPVTKSFNRGEC

Agonistic Activity (TF1 + IL-2Rβ), pSTAT5 titration [1]: 70% | Fold change from rhIL-2 (TF1 + IL-2Rβ), pSTAT5 titration [1]: 499 fold | Fold change from rhIL-2 (NK-92), pSTAT5 titration [2]: 1180 fold | Agonistic Activity (NK-92) [3]: 50% | Fold change from hIL-2 (NK-92) [3]: 12 fold | Fold change from rhIL-2 (NK-92) [3]: 655 fold | Fold change from hIL-2 (TF1 + IL-2Rβ) [4]: 9 fold | Agonistic Activity (TF1 + IL-2Rβ) [5]: 40% | Fold change from rhIL-2 (TF1 + IL-2Rβ) [5]: 316 fold
B2: 1H3-hIgG1-L6-hIL-2 (D20A/E95A/L72R) (protein)
heavy: EVQLVESGGGLVQPGRSLKLSCAVSGFTFSDYAMAWVRQAPKKGLEWVATISYDGSRTYYRDSVKGRFTISRDNAKITLYLQMDSLRSEDTATYYCARHGSGYFDYWGQGVMVTVSS[not shown - human IgG1 constant region]SGGGGSAPTSSSTKKTQLQLEHLLLALQMILNGINNYKNPKLTRMLTFKFYMPKKATELKHLQCLEEELKPLEEVLNRAQSKNFHLRPRDLISNINVIVLALKGSETTFMCEYADETATIVEFLNRWITFCQSIISTLT
light: B1 light

Agonistic Activity (TF1 + IL-2Rβ), pSTAT5 titration [1]: 10% | Fold change from rhIL-2 (TF1 + IL-2Rβ), pSTAT5 titration [1]: > 10000 fold | Agonistic Activity (NK-92), pSTAT5 titration [2]: 10% | Fold change from rhIL-2 (NK-92), pSTAT5 titration [2]: > 10000 fold | Fold change from hIL-2 (NK-92) [3]: 25 fold | Fold change from rhIL-2 (NK-92) [3]: > 10000 fold | Fold change from hIL-2 (TF1 + IL-2Rβ) [4]: 15 fold | Fold change from rhIL-2 (TF1 + IL-2Rβ) [5]: > 10000 fold
B3: 1H3-hIgG1-L6-hIL-2 (D20A/E95A/E62K) (protein)
heavy: EVQLVESGGGLVQPGRSLKLSCAVSGFTFSDYAMAWVRQAPKKGLEWVATISYDGSRTYYRDSVKGRFTISRDNAKITLYLQMDSLRSEDTATYYCARHGSGYFDYWGQGVMVTVSS[not shown - human IgG1 constant region]SGGGGSAPTSSSTKKTQLQLEHLLLALQMILNGINNYKNPKLTRMLTFKFYMPKKATELKHLQCLEEKLKPLEEVLNLAQSKNFHLRPRDLISNINVIVLALKGSETTFMCEYADETATIVEFLNRWITFCQSIISTLT
light: B1 light

Agonistic Activity (TF1 + IL-2Rβ), pSTAT5 titration [1]: 60% | Fold change from rhIL-2 (TF1 + IL-2Rβ), pSTAT5 titration [1]: 620 fold | Agonistic Activity (NK-92), pSTAT5 titration [2]: 60% | Fold change from rhIL-2 (NK-92), pSTAT5 titration [2]: 45 fold | Agonistic Activity (NK-92) [3]: 50% | Fold change from hIL-2 (NK-92) [3]: 5 fold | Fold change from rhIL-2 (NK-92) [3]: 6 fold | Fold change from hIL-2 (TF1 + IL-2Rβ) [4]: 8 fold | Agonistic Activity (TF1 + IL-2Rβ) [5]: 80% | Fold change from rhIL-2 (TF1 + IL-2Rβ) [5]: 535 fold
B4: 1H3-hIgG1-L6-hIL-2 (D20A/E95A/E68A) (protein)
heavy: EVQLVESGGGLVQPGRSLKLSCAVSGFTFSDYAMAWVRQAPKKGLEWVATISYDGSRTYYRDSVKGRFTISRDNAKITLYLQMDSLRSEDTATYYCARHGSGYFDYWGQGVMVTVSS[not shown - human IgG1 constant region]SGGGGSAPTSSSTKKTQLQLEHLLLALQMILNGINNYKNPKLTRMLTFKFYMPKKATELKHLQCLEEELKPLEAVLNLAQSKNFHLRPRDLISNINVIVLALKGSETTFMCEYADETATIVEFLNRWITFCQSIISTLT
light: B1 light

Agonistic Activity (TF1 + IL-2Rβ), pSTAT5 titration [1]: 50% | Fold change from rhIL-2 (TF1 + IL-2Rβ), pSTAT5 titration [1]: 61 fold | Agonistic Activity (NK-92), pSTAT5 titration [2]: 80% | Fold change from rhIL-2 (NK-92), pSTAT5 titration [2]: 131 fold | Fold change from hIL-2 (NK-92) [3]: 8 fold | Fold change from rhIL-2 (NK-92) [3]: 11 fold | Fold change from hIL-2 (TF1 + IL-2Rβ) [4]: 5 fold | Fold change from rhIL-2 (TF1 + IL-2Rβ) [5]: 469 fold
B5: 1H3-hIgG1-L6-hIL-2 (D20A/E95A/E68Y) (protein)
heavy: EVQLVESGGGLVQPGRSLKLSCAVSGFTFSDYAMAWVRQAPKKGLEWVATISYDGSRTYYRDSVKGRFTISRDNAKITLYLQMDSLRSEDTATYYCARHGSGYFDYWGQGVMVTVSS[not shown - human IgG1 constant region]SGGGGSAPTSSSTKKTQLQLEHLLLALQMILNGINNYKNPKLTRMLTFKFYMPKKATELKHLQCLEEELKPLEYVLNLAQSKNFHLRPRDLISNINVIVLALKGSETTFMCEYADETATIVEFLNRWITFCQSIISTLT
light: B1 light

Agonistic Activity (TF1 + IL-2Rβ), pSTAT5 titration [1]: 70% | Fold change from rhIL-2 (TF1 + IL-2Rβ), pSTAT5 titration [1]: 155 fold and 185 fold | Agonistic Activity (NK-92), pSTAT5 titration [2]: 60 to 70% | Fold change from rhIL-2 (NK-92), pSTAT5 titration [2]: > 10000 fold | Fold change from hIL-2 (NK-92) [3]: 21 fold | Fold change from rhIL-2 (NK-92) [3]: > 10000 fold | Fold change from hIL-2 (TF1 + IL-2Rβ) [4]: 5 fold | Agonistic Activity (TF1 + IL-2Rβ) [5]: 40 to 80%
B6: 1H3-hIgG1-L6-hIL-2 (D20A/E95A/F42K/Y45R) (protein)
heavy: EVQLVESGGGLVQPGRSLKLSCAVSGFTFSDYAMAWVRQAPKKGLEWVATISYDGSRTYYRDSVKGRFTISRDNAKITLYLQMDSLRSEDTATYYCARHGSGYFDYWGQGVMVTVSS[not shown - human IgG1 constant region]SGGGGSAPTSSSTKKTQLQLEHLLLALQMILNGINNYKNPKLTRMLTKKFRMPKKATELKHLQCLEEELKPLEEVLNLAQSKNFHLRPRDLISNINVIVLALKGSETTFMCEYADETATIVEFLNRWITFCQSIISTLT
light: B1 light

Agonistic Activity (TF1 + IL-2Rβ), pSTAT5 titration [1]: 40% | Fold change from rhIL-2 (TF1 + IL-2Rβ), pSTAT5 titration [1]: 265 fold | Agonistic Activity (NK-92), pSTAT5 titration [2]: 70% | Fold change from rhIL-2 (NK-92), pSTAT5 titration [2]: > 10000 fold | Agonistic Activity (NK-92) [3]: 40% | Fold change from hIL-2 (NK-92) [3]: 25 fold | Fold change from rhIL-2 (NK-92) [3]: 721 fold | Fold change from hIL-2 (TF1 + IL-2Rβ) [4]: 10 fold | Agonistic Activity (TF1 + IL-2Rβ) [5]: 30% | Fold change from rhIL-2 (TF1 + IL-2Rβ) [5]: 982 fold
B7: 1H3-hIgG1-L6-hIL-2 (D20A/E95A/E62Y) (protein)
heavy: EVQLVESGGGLVQPGRSLKLSCAVSGFTFSDYAMAWVRQAPKKGLEWVATISYDGSRTYYRDSVKGRFTISRDNAKITLYLQMDSLRSEDTATYYCARHGSGYFDYWGQGVMVTVSS[not shown - human IgG1 constant region]SGGGGSAPTSSSTKKTQLQLEHLLLALQMILNGINNYKNPKLTRMLTFKFYMPKKATELKHLQCLEEYLKPLEEVLNLAQSKNFHLRPRDLISNINVIVLALKGSETTFMCEYADETATIVEFLNRWITFCQSIISTLT
light: B1 light

Agonistic Activity (TF1 + IL-2Rβ), pSTAT5 titration [1]: 40 to 50% | Agonistic Activity (NK-92), pSTAT5 titration [2]: 30 to 70% | Fold change from hIL-2 (NK-92) [3]: 15 fold | Fold change from rhIL-2 (NK-92) [3]: > 10000 fold | Fold change from hIL-2 (TF1 + IL-2Rβ) [4]: 4 fold | Agonistic Activity (TF1 + IL-2Rβ) [5]: 60% | Fold change from rhIL-2 (TF1 + IL-2Rβ) [5]: 993 fold
B8: 1H3-hIgG1-L6-hIL-2 (Δ1-3APT/D20A/R38E/C125A) (protein)
heavy: EVQLVESGGGLVQPGRSLKLSCAVSGFTFSDYAMAWVRQAPKKGLEWVATISYDGSRTYYRDSVKGRFTISRDNAKITLYLQMDSLRSEDTATYYCARHGSGYFDYWGQGVMVTVSS[not shown - human IgG1 constant region]SGGGGSSSSTKKTQLQLEHLLLALQMILNGINNYKNPKLTEMLTFKFYMPKKATELKHLQCLEEELKPLEEVLNLAQSKNFHLRPRDLISNINVIVLELKGSETTFMCEYADETATIVEFLNRWITFAQSIISTLT
light: B1 light

— patent US20240076343A1
